The supplement of paper PMC3334620
The full ranking holds about 33,000 sequences; the median of “E-score (-0.5 to 0.5)” is about -0.043, and the highest 2% start at about 0.37. Some of the results follow.

biological target: T1, Upc2 (UniProt Q12151); test: PBM E-score (8-mer binding enrichment) (E-score (-0.5 to 0.5)); higher = stronger / more preferred TF binding; most listed sequences are background and not binding sites; conditions: protein concentration: 200 nM; construct: GST-full length
T1 sequence: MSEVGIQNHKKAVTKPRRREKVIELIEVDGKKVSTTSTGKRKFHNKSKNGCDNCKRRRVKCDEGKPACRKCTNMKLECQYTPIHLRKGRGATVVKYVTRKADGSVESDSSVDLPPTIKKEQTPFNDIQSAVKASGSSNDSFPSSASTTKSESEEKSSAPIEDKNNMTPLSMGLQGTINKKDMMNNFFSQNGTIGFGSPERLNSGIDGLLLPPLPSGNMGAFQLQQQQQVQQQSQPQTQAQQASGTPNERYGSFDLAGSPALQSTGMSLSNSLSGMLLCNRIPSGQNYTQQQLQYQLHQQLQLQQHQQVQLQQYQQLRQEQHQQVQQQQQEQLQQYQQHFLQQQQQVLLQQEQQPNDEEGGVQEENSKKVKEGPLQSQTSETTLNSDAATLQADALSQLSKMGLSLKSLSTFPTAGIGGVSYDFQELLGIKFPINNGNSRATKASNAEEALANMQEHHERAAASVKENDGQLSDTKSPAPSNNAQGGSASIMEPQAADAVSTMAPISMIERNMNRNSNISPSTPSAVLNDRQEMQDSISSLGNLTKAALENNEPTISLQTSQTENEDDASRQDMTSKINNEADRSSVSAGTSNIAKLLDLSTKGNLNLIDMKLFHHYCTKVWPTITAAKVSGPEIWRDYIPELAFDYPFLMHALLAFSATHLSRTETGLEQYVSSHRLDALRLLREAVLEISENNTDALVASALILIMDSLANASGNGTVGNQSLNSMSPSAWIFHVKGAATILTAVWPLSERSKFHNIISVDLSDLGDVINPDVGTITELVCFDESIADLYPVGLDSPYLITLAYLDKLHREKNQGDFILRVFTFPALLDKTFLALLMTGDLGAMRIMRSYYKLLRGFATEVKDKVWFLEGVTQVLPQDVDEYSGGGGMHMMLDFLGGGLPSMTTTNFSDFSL
In short: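 PURExpress in vitro transcription/translation supplied GST-tagged yeast transcription factors, either full-length or DNA-binding domain. Applied at about 100-200 nM to universal all-10-mer Agilent arrays double-stranded by primer extension, the bound protein was detected with fluorescent anti-GST. E-scores, modified Wilcoxon-Mann-Whitney statistics, were given by the Universal PBM Analysis Suite to ungapped eight-base words pooled with their reverse complements after masliner normalisation.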

| Sequence | PBM E-score |
| --- | --- |
| CAGTTCAC | -0.0317 |
| AGAGGCAC | -0.00593 |
| CACACAAA | 0.0375 |
| GTGCGCGA | 0.0402 |
| ATTAACAG | 0.0176 |
| ATATTGTG | -0.104 |
| TAAATATA | 0.137 |
| ACTGGCCT | 0.0362 |
| GCTTGGCA | -0.0392 |
| ACGACAAG | 0.277 |
| GACAGTCC | -0.17 |
| CTTCGAGA | -0.233 |
| GTCAAAAA | -0.0745 |
| AAAGTGAC | -0.128 |
| CCTAGTCA | -0.0767 |
| AGGTACGG | 0.354 |
| ACAGGCGG | -0.0908 |
| CAGAGTAG | -0.0468 |
| ATGACATG | -0.142 |
| CGCTGATA | 0.0257 |
| ACGGCTGG | 0.00912 |
| CTATGCTC | -0.166 |
| ATTAGGGA | -0.205 |
| AAACGCTG | 0.244 |
| AAGGTGTC | -0.113 |

| Sequence | PBM E-score |
| --- | --- |
| ACGGTAGT | 0.0261 |
| AATAGGGG | -0.0823 |
| CGCAGGAG | -0.193 |
| GCCCACAC | -0.263 |
| TGCGGCAA | -0.127 |
| GTAACCAC | 0.0237 |
| CATACTTC | -0.219 |
| CTTCCTTC | -0.129 |
| AGAAAGAT | 0.0673 |
| ATGCAGAA | -0.0454 |
| GCAGTAAA | -0.0405 |
| AGTTTTCC | 0.221 |
| AGCTTAAC | 0.082 |
| GCTGGCTA | -0.127 |
| CCAGCGGG | -0.279 |
| ATATGTAG | -0.299 |
| AAAACACG | 0.0627 |
| ATGTGCAG | -0.211 |
| CCTAGGGC | -0.357 |
| ATTATTAC | 0.018 |
| CATGAATG | -0.14 |
| ATATCATG | -0.171 |
| CCTTCTAA | -0.188 |
| CGAATACA | 0.0785 |
| AAAACGGC | 0.102 |

| Sequence | PBM E-score |
| --- | --- |
| CGGAACAA | 0.0835 |
| CGTGGGCC | -0.181 |
| AGCAAAAT | 0.101 |
| CTGGACGA | -0.248 |
| AGCTTCTC | 0.119 |
| GGTGGCGA | 0.0876 |
| CACATACC | -0.12 |
| GAACTTAC | 0.0659 |
| GTCACGAA | 0.014 |
| CGGACAAA | 0.0814 |
| AGTCGGTC | 0.145 |
| AATGTTAC | 0.13 |
| CGGTCTTA | 0.125 |
| CAGTGAGA | -0.243 |
| TCCAAACA | -0.213 |
| CGCTTTTC | 0.104 |
| GACAAGAC | 0.00471 |
| AACGTTGT | 0.184 |
| CGAAGACG | -0.00194 |
| CGATGTGA | 0.14 |
| ATACCTGG | -0.219 |
| ATCTTGAA | -0.141 |
| AGGGTACA | -0.0634 |
| ACAGGGTC | -0.134 |
| CGTCTTAA | 0.18 |

| Sequence | PBM E-score |
| --- | --- |
| GTTTATGA | 0.137 |
| CTCTGGCA | -0.24 |
| CTTTTACC | 0.113 |
| TTCTTCAA | -0.0112 |
| AATCAGCC | -0.0548 |
| TAAGATAA | 0.0173 |
| CTGTTGTC | -0.103 |
| ATAAGCTA | -0.0833 |
| CGCCAGTC | -0.0455 |
| ACTTGCAG | -0.103 |
| CTTAACCC | -0.121 |
| TTGAAAAA | -0.0218 |
| AAAGTCTT | -0.0887 |
| ACTCTACT | 0.0626 |
| ACGACGAA | 0.375 |
| AGAGAAGA | 0.0763 |
| CCCCCAGA | -0.198 |
| ATTGCGTC | -0.199 |
| CACCCAAC | -0.0957 |
| AACTTATG | -0.0673 |
| CGTAATTC | 0.254 |
| AGTATGTC | -0.0423 |
| GCCCAAAC | 0.186 |
| GAAATATC | 0.0721 |
| ACCTACTC | -0.168 |

| Sequence | PBM E-score |
| --- | --- |
| AGCCGGCC | -0.254 |
| AAGTCAGA | -0.229 |
| CACGGTCA | -0.185 |
| AAGCTTGA | -0.144 |
| AGGTAACT | -0.107 |
| CCTCAAGA | -0.315 |
| AAAGAGAA | -0.0251 |
| CCCTTTCC | -0.242 |
| ACCAACAA | -0.0689 |
| GTATGCCA | -0.0323 |
| ACTTTCCC | -0.277 |
| CTTGTTTA | 0.0235 |
| AACGCGGT | 0.102 |
| CAATCTTA | 0.065 |
| CCGTGATC | -0.0603 |
| ACCTTGCA | 0.00498 |
| ACCAGCGG | -0.301 |
| TCAACGAA | 0.249 |
| ATGGCCAG | -0.163 |
| AGCGAAAA | 0.0608 |
| AAGTAATA | 0.112 |
| CCAAGAAC | 0.0408 |
| AGTTCAAT | -0.0947 |
| ACCTAATG | -0.304 |
| CCGCCTAC | 0.025 |

| Sequence | PBM E-score |
| --- | --- |
| GTCCACAA | -0.215 |
| GCACACAC | 0.0452 |
| CCCAAAAA | -0.157 |
| TAATCGTA | 0.42 |
| TCCTGAGA | -0.207 |
| AGAGGATC | -0.0201 |
| ACGATCCG | 0.303 |
| ATTGCGTG | -0.00571 |
| ACCACAAG | -0.345 |
| CGGTCCGC | -0.0599 |
| ATGTCGAG | -0.208 |
| GGTCGAGA | -0.0156 |
| TTAGCTAA | -0.00737 |
| ACTACAAA | 0.0136 |
| GCGTACAC | 0.33 |
| ATCGGATG | 0.111 |
| ATTAGATC | -0.00471 |
| GCAAGCTA | -0.109 |
| CACCTACA | -0.172 |
| AACTGACT | 0.00051 |
| GATTCTGA | 0.082 |
| ATCTTTAC | 0.191 |
| CAATACTG | -0.0693 |
| CTTGCAGC | -0.167 |
| AACGTAAG | 0.0726 |

| Sequence | PBM E-score |
| --- | --- |
| CACAACAC | 0.0167 |
| CAGTCCGG | -0.0759 |
| ATTGCTCC | -0.0818 |
| CTCCATTC | -0.176 |
| CACAGTAC | 0.0225 |
| AAATCATT | -0.134 |
| CTACGGTC | 0.109 |
| CCCTTTTC | -0.0146 |
| AGAATCCC | 0.11 |
| CTCGGGGC | -0.168 |
| GGGCAAAA | -0.0612 |
| ACGGGCAT | 0.28 |
| GAACGCTA | -0.0474 |
| GCAGGGAC | -0.165 |
| GCTAGAGC | -0.141 |
| GTATAGCA | 0.377 |
| CCTTCCAA | -0.216 |
| CATAGGCG | -0.075 |
| TACACCTA | 0.0945 |
| ACGCGGTA | 0.142 |
| GTTCAGTA | 0.249 |
| GCATATAC | 0.251 |
